Experimental data as given in the supplement of paper PMC9446081.
Hit rate of the full screen: of about 39,000 compounds, about 220 (0.56%) showed activity. This is one part of the list.

Tested on: Escherichia coli K-12 BW25113
Test: relative growth (OD600 normalised to plate interquartile mean) (fraction); higher = less growth inhibition, active = 0.2 or less
Conditions: 50 µM; LB; incubation time: overnight (16-24 h)
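Also: static incubation at 37 °C against the wild-type strain, values averaged over two biological replicates.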

Q: Which relative growth does the source give for `COCC(=O)N1C[C@H](C)[C@@H](OC)CN(C)C(=O)c2cc(NC(=O)Nc3cccc(F)c3)ccc2OC[C@@H]1C` here?
A: inactive: 1.04

Q: `C[C@@H]1CN([C@H](C)CO)C(=O)c2cc(NS(=O)(=O)c3cn(C)cn3)ccc2O[C@@H]1CN(C)Cc1ccncc1` was tested. Which relative growth did it give?
A: inactive: 1.02

Q: Which relative growth does the source give for `c1ccc(Nc2ncnc3cc(-c4ccccc4)sc23)cc1` here?
A: inactive: 1.03

Q: How did the relative growth turn out when `O=C(c1ccc(Cl)cc1)n1c2ccccc2c2ccccc21` was run?
A: inactive: 0.995

Q: With `CC(C)NC(=O)N(C)C[C@@H]1Oc2ccc(NC(=O)CCC(F)(F)F)cc2C(=O)N([C@H](C)CO)C[C@@H]1C` as the compound, how does the relative growth read?
A: inactive: 0.99

Q: Which relative growth does the source give for `C=CCOC(=O)[C@@H]1[C@H]2C(=O)O[C@H](c3ccccc3)[C@H](c3ccccc3)N2[C@H](c2ccc(OCCOC(=O)[C@H]3C[C@H]4C(=O)N[C@@H](CC(C)C)C(=O)N4[C@H]3c3cccc(OCCO)c3)cc2)[C@@]12C(=O)Nc1ccccc12` here?
A: inactive: 1.07

Q: `COCC#Cc1cnc2c(c1)C(=O)N([C@@H](C)CO)C[C@H](C)[C@@H](CN(C)C(=O)Nc1ccccc1OC)O2` was tested. Which relative growth did it give?
A: inactive: 1

Q: How did the relative growth turn out when `COCC#Cc1ccc([C@H]2[C@H](CO)N3C(=O)CN(C(=O)CN4CCOCC4)C[C@@H]23)cc1` was run?
A: inactive: 0.989

Q: How did the relative growth turn out when `C[C@H](CO)N1C[C@H](C)[C@@H](CN(C)C)Oc2ccc(NS(=O)(=O)c3ccc(Cl)cc3)cc2CC1=O` was run?
A: inactive: 0.991

Q: How did the relative growth turn out when `C[C@@H]1CN([C@@H](C)CO)C(=O)c2cccc(NC(=O)Nc3ccccc3)c2O[C@H]1CN(C)Cc1ccc(C(=O)Nc2ccccc2N)cc1` was run?
A: inactive: 0.999

Q: Which relative growth does the source give for `CC12C=CC(=O)C=C1CCC1C2C(O)CC2(C)C1CCC2(O)C(=O)COP(=O)([O-])[O-].[Na+].[Na+]` (centres undefined) here?
A: inactive: 1.07

Q: With `Cc1noc(C)c1NC(=O)N(C)C[C@@H]1Oc2cc(C#CCN(C)C)ccc2S(=O)(=O)N([C@H](C)CO)C[C@@H]1C` as the compound, how does the relative growth read?
A: inactive: 0.976

Q: For `Cc1noc(C)c1NC(=O)N(C)C[C@H]1Oc2ccc(NC(=O)Nc3cccc4ccccc34)cc2CC(=O)N([C@@H](C)CO)C[C@@H]1C`, which relative growth is on record?
A: inactive: 1

Q: For `COc1ccc(-c2csc(CCN)n2)cc1`, which relative growth is on record?
A: inactive: 0.94

Q: `CC1=CC(=O)[N-]S(=O)(=O)O1.[K+]` was tested. Which relative growth did it give?
A: inactive: 0.905

Q: Which relative growth does the source give for `C[C@@H]1CN([C@H](C)CO)C(=O)c2cc(C#CC3CCCCC3)cnc2O[C@@H]1CN(C)C(=O)c1ccncc1` here?
A: inactive: 1.03

Q: `Cc1noc(C)c1S(=O)(=O)Nc1ccc2c(c1)CC(=O)N([C@@H](C)CO)C[C@@H](C)[C@@H](CN(C)Cc1ccc(C(=O)O)cc1)O2` was tested. Which relative growth did it give?
A: inactive: 0.998

Q: `O=C(/C=C/c1cccc(-c2cn(-c3ccc(C[C@H]4C(=O)O[C@@H](Cc5ccccc5)[C@H]5[C@@H]6C=CCCC=C6CN54)cc3)nn2)c1)NO` was tested. Which relative growth did it give?
A: inactive: 0.989

Q: `O=C(CCCCCNC(=O)OCc1ccc(CO[C@H]2C[C@@H](c3ccc(C(F)(F)F)cc3)C=C(C(=O)NC3CC3)O2)cc1)NO` was tested. Which relative growth did it give?
A: inactive: 0.94

Q: `C[C@H](N)C(=O)N[C@@]1(C(=O)O)C[C@@H](Sc2nnc[nH]2)[C@H]2[C@H](C(=O)O)[C@H]21` was tested. Which relative growth did it give?
A: inactive: 0.993

Q: Which relative growth does the source give for `C[C@@H]1CN([C@@H](C)CO)C(=O)c2cc(NS(=O)(=O)c3ccc(Cl)cc3)ccc2O[C@@H]1CN(C)Cc1ccc(C(=O)Nc2ccccc2N)cc1` here?
A: inactive: 1.01

Q: How did the relative growth turn out when `O=C(CN1CCOCC1)NCC[C@H]1CC[C@H](NS(=O)(=O)c2ccc(F)cc2)[C@H](CO)O1` was run?
A: inactive: 0.976

Q: How did the relative growth turn out when `CCS(=O)(=O)Nc1ccc2c(c1)C(=O)N(C)[C@@H]1CC[C@H](CC(=O)N[C@H]3CCN(Cc4ccccc4)C3)O[C@H]1CO2` was run?
A: inactive: 1.02

Q: Which relative growth does the source give for `COc1ccc(NC(=O)Nc2ccc3c(c2)CC(=O)N([C@H](C)CO)C[C@@H](C)[C@H](CN(C)C(=O)Nc2cccc4ccccc24)O3)cc1` here?
A: inactive: 0.965

Q: How did the relative growth turn out when `O=C(C[C@@H]1CC[C@H]2[C@@H](COC[C@H](O)CN2C(=O)Nc2ccc(C(F)(F)F)cc2)O1)NCc1ccncn1` was run?
A: inactive: 1

Q: For `C[C@H]1CN([C@@H](C)CO)C(=O)c2cc(NS(=O)(=O)c3ccc(Cl)cc3)ccc2O[C@@H]1CN(C)Cc1ccc(-c2ccccc2)cc1`, which relative growth is on record?
A: inactive: 0.858

Q: `C[C@H](CO)N1C[C@H](C)[C@@H](CN(C)Cc2ccc(Cl)c(Cl)c2)Oc2ccc(NC(=O)NC3CCCCC3)cc2C1=O` was tested. Which relative growth did it give?
A: inactive: 0.996

Q: How did the relative growth turn out when `CC(C)(C)C(=O)OCOP(=O)(COCCn1cnc2c(N)ncnc21)OCOC(=O)C(C)(C)C` was run?
A: inactive: 1.15

Q: How did the relative growth turn out when `Cc1ccc(S(=O)(=O)Nc2ccc3c(c2)C(=O)N([C@@H](C)CO)C[C@H](C)[C@H](CN(C)S(=O)(=O)c2ccc(F)cc2)O3)cc1` was run?
A: inactive: 0.886

Q: With `CO[C@H]1CN(C)C(=O)c2ccc(NC(=O)c3ccc(F)cc3)cc2OC[C@@H](C)N(C(=O)CN(C)C)C[C@@H]1C` as the compound, how does the relative growth read?
A: inactive: 0.986

Q: For `C[C@H]1CCCCO[C@@H](CN(C)C(=O)C2CCCCC2)[C@@H](C)CN([C@@H](C)CO)C(=O)c2cc(NC(=O)c3ccncc3)ccc2O1`, which relative growth is on record?
A: inactive: 0.998

Q: For `COc1ccc(S(=O)(=O)N(C)C[C@@H]2Oc3cc(-c4ccccc4OC)ccc3S(=O)(=O)N([C@@H](C)CO)C[C@H]2C)cc1`, which relative growth is on record?
A: inactive: 1

Q: With `Cl.O=C1NCC2(CCN(CCc3ccccc3)CC2)O1` as the compound, how does the relative growth read?
A: inactive: 0.96

Q: Which relative growth does the source give for `COc1ccccc1C#Cc1cnc2c(c1)C(=O)N([C@H](C)CO)C[C@H](C)[C@@H](CN(C)C(=O)CN(C)C)O2` here?
A: inactive: 1.01

Q: How did the relative growth turn out when `C[C@H](CO)N1C[C@H](C)[C@@H](CN(C)C(=O)NC2CCCCC2)Oc2c(NC(=O)Cn3cnnn3)cccc2C1=O` was run?
A: inactive: 1.01

Q: Which relative growth does the source give for `C=C(/C=C\CNS(=O)(=O)c1ccc(C)cc1)[C@H](O)[C@H]1CCCN1S(=O)(=O)c1ccccc1[N+](=O)[O-]` here?
A: inactive: 1.03

Q: For `C[C@@H]1CN([C@@H](C)CO)S(=O)(=O)c2ccc(-c3cncnc3)cc2O[C@H]1CN(C)C(=O)c1cccc(F)c1`, which relative growth is on record?
A: inactive: 0.997

Q: With `O=C(N[C@H]1CC[C@H](CCNS(=O)(=O)c2ccccc2)O[C@@H]1CO)c1cnccn1` as the compound, how does the relative growth read?
A: inactive: 1

Q: Which relative growth does the source give for `N#C[C@H](c1ccccn1)N1CCOCC1` here?
A: inactive: 0.981
